Reference: PubChem BioAssay AID504339 (National Center for Advancing Translational Sciences (NCATS), 2011)
“And” between values parts separate entries of the source, which are not always exact repeats. Equal entries are not always repeated. Out of some 390,000 compounds screened, about 17,000 (4.4%) were called active. The shares of active, inactive and inconclusive entries below differ from those in the screen. Calls come from the whole dose curve; as a rule, active = well fitted inhibition curve with a large enough effect; inconclusive = small, poorly fitted or top-dose-only effect; inactive = no such curve, though single readings can be large or run the other way. Where the call is inconclusive, the potency comes from a doubtful curve fit.

These compounds were tested against Lysine-specific demethylase 4A (Homo sapiens) (UniProt O75164) (assay: qHTS Assay for Inhibitors of JMJD2A-Tudor Domain). Conditions: AlphaScreen JMJD2A-Tudor / H3K4me3 peptide binding; activity change, negative = inhibition: at 114 µM (top of the series).
UniProt O75164, sequence (O75164 whole entry, looked up, the tested form may be a part): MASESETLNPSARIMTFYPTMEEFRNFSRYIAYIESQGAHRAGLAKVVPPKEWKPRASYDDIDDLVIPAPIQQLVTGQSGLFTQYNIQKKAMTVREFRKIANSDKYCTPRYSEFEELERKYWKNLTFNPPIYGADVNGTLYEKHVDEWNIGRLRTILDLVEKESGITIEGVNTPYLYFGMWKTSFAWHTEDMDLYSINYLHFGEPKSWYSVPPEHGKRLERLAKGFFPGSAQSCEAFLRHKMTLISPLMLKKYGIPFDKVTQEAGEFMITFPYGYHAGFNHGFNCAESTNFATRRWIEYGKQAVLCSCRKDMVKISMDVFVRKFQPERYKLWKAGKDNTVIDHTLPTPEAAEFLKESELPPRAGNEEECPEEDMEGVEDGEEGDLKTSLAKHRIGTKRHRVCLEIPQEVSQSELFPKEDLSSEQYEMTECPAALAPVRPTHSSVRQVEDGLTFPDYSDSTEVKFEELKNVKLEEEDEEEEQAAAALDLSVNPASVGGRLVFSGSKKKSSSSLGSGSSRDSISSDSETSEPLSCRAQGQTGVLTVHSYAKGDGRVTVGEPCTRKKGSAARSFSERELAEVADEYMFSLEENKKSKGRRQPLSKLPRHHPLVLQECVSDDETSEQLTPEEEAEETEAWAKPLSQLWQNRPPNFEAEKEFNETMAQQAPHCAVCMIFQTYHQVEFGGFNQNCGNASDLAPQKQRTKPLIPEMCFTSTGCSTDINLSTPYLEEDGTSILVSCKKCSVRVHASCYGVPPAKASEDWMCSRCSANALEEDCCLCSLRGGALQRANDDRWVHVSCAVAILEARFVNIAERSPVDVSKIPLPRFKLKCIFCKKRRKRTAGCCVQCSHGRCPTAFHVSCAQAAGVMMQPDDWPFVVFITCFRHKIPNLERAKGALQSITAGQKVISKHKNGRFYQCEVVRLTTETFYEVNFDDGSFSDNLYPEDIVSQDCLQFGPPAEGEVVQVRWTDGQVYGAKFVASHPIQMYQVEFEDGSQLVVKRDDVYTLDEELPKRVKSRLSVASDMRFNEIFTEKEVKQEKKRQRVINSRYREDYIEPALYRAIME
% is set by controls: 0 for no effect and ±100 for the full control effect; potency is the fitted concentration of half-maximal effect; tags give direction and shape of the fitted curve.
Note: nearly all actives have a fitted effect of over 50% in size.

| Structure (SMILES) | Potency | activity change, negative = inhibition |
| --- | --- | --- |
| CCN(C(=O)CCS(=O)(=O)c1ccc2c(c1)CCN2C(C)=O)c1cccc(C(F)(F)F)c1 | inactive |  |
| O=C(NCC(c1cccnc1)N1CCc2ccccc2C1)C(=O)Nc1ccccc1F (stereo not given) | inconclusive: 20 µM [inhibitor, full curve] |  |
| CSc1sc2ccccc2[n+]1CCCS(=O)(=O)[O-] | active: 89.1 µM |  |
| COc1ccc(S(=O)(=O)/N=C2/NC(=O)/C(=C/c3ccco3)S2)cc1 | inconclusive: 50.1 µM [inhibitor, partial curve] |  |
| S=C(NCCCN(Cc1ccc(Cl)cc1)c1ccc(Br)cn1)NCc1ccc2nc[nH]c2c1 | active: 50.1 µM |  |
| CN(C)S(=O)(=O)c1ccc(C(=O)NCCSc2c(-c3ccc(Br)cc3)[nH]c3ccccc23)cc1 | inactive |  |
| Cc1nn(-c2ccccc2)c2c1C1(C(=O)Nc3ccccc31)N1C(=N2)Sc2ccccc21 (stereo not given) | inconclusive: 50.1 µM [inhibitor, partial curve] |  |
| O=C(NNc1ccc([N+](=O)[O-])cc1)c1ccco1 | inactive |  |
| S=c1[nH]nc(Cc2noc3ccccc23)n1-c1ccc(Cl)cc1 | inconclusive: 89.1 µM [inhibitor, single point] |  |
| COc1ccc(-c2csc(Nc3cccnc3)n2)cc1 | inactive |  |
| O=C(C1=C[C@@H](c2csc3ccccc23)C[C@@H](OCCCCO)O1)N1CCN(Cc2ccc3c(c2)OCO3)CC1 | inconclusive: 44.7 µM [inhibitor, partial curve] |  |
| O=C(Cn1c(=O)cnc2ccccc21)Nc1cc(Cl)ccc1N1CCOCC1 | inconclusive: 15.8 µM [inhibitor, full curve] |  |
| Cc1cccc(C)c1Nc1c(-c2ccc(N3CCOCC3)cc2)nc2ncccn12 | inconclusive: 79.4 µM [inhibitor, partial curve] and inconclusive: 39.8 µM [inhibitor, partial curve] |  |
| CC(=O)Nc1ccc(NC(=O)CN2C(=O)CC(c3ccco3)Sc3ccccc32)cc1 (stereo not given) | inconclusive: 79.4 µM [inhibitor, single point] |  |
| COc1ccc(N2CCN(C(=O)CN3CCSc4ccccc43)CC2)cc1 | inconclusive: 50.1 µM [inhibitor, partial curve] |  |
| O=C1c2ccccc2-c2ncnc3c(N4CCOCC4)cc(N4CCOCC4)c1c23 | active: 44.7 µM |  |
| CCN(CC)CCN(C(=O)c1ccco1)c1nc2c(C)c(C)ccc2s1 | inconclusive: 56.2 µM [inhibitor, partial curve] |  |
| Cc1ccc(CSCCC(=O)N2CCN(c3ccc(F)cc3)CC2)cc1 | inconclusive: 20 µM [inhibitor, full curve] |  |
| CC(C)Sc1nc(SCC(=O)NCc2ccco2)c2c3c(sc2n1)COC(C)(C)C3 | inconclusive: 79.4 µM [inhibitor, single point] |  |
| CC1CN(C(=O)Nc2ccc(C(=O)NCc3ccccc3F)cc2)c2ccccc2S1 (stereo not given) | inactive |  |
| O=C(O)Cn1c(CC(=O)N2CCCC2)nc2ccccc21 | inconclusive: 89.1 µM [inhibitor, single point] |  |
| O=C(COC(=O)C1CCCCC1)Nc1ccccc1OC(F)F | active: 11.2 µM |  |
| O=C(NC(=S)Nc1cccc(Cl)c1N1CCOCC1)c1cccs1 | inconclusive: 50.1 µM [inhibitor, partial curve] |  |
| CCOc1cccc2cc(-c3nnc(NCc4ccc5c(c4)OCO5)s3)c(=O)oc12 | inconclusive: 44.7 µM [inhibitor, partial curve] |  |

| Structure (SMILES) | Potency | activity change, negative = inhibition |
| --- | --- | --- |
| S=c1[nH]nc(-c2cccnc2)n1/N=C/C=C/c1ccco1 | active: 20 µM |  |
| C(=N\N1CCN(c2ccccc2)CC1)/c1ccccc1 | inconclusive: 15.8 µM [inhibitor, partial curve] |  |
| COc1ccc(-c2nc(C)ncc2-c2ccc(Cl)cc2)c(O)c1 | inconclusive: 44.7 µM [inhibitor, partial curve] |  |
| CC(=O)N1CCOc2ccc(S(=O)(=O)N3CCC(C)CC3)cc21 | inactive |  |
| CC(/C=C1\SC(=S)N(NC(=O)c2ccncc2)C1=O)=C\c1ccccc1 | inconclusive: 3.16 µM [inhibitor, full curve] |  |
| COCCN=C1N[C@@H](c2cccc(C(F)(F)F)c2)C(C(=O)OC)=C(C)N1Cc1ccccc1 | inconclusive: 31.6 µM [inhibitor, partial curve] |  |
| COc1cc(C(=O)Nc2cccc(S(=O)(=O)NCc3ccco3)c2)cc(OC)c1OC | inactive |  |
| CC(C)=CCC/C(C)=C/CNC(=O)C[C@H]1C[C@H](C(=O)N2CCOCC2)[C@@]2(CCC3CCCC3)c3[nH]c4cc(-c5ccco5)ccc4c3CCN2C1=O | inconclusive: 17.8 µM [inhibitor, full curve] |  |
| CN(C)c1cccc(C(=O)NCc2ccccc2Cl)c1 | inconclusive: 50.1 µM [inhibitor, partial curve] |  |
| CC(C)Oc1ccc(CCc2nnc(SC(C)C(=O)O)n2-c2ccccc2)cc1 (stereo not given) | active: 56.2 µM |  |
| CCc1nnc2n1N=C(c1ccc([N+](=O)[O-])cc1)CS2 | inactive |  |
| CCc1ccc2[nH]c(=O)c(CN(Cc3ccco3)C(=S)NCC3CCCO3)cc2c1 (stereo not given) | inconclusive: 89.1 µM [inhibitor, partial curve] |  |
| CC#CCN1c2ccccc2[C@]23C[C@@H](C(=O)OC)N(C(=O)c4cc(C)oc4C)C2=NC(C(=O)OC)=C(C(=O)OC)[C@H]13 | inconclusive: 44.7 µM [inhibitor, partial curve] |  |
| CC(C)Oc1ccc(CNC(=O)CN2C(=O)CCn3nc(-c4cn(C)c5ccccc45)cc32)cc1 | inconclusive: 28.2 µM [inhibitor, full curve] |  |
| CC(C)N(C(=O)[C@H]1C[C@H](CC(=O)NCCN2CCOCC2)C(=O)N2CCc3c([nH]c4cc(CCC(=O)N(C)C)ccc34)[C@]12C)C(C)C | inactive |  |
| Cc1cccc(C)c1-n1ncc(C(=O)NCCCN2CCCCC2)c1C1CCN(C(=O)OC(C)(C)C)CC1 | inactive |  |
| Cc1nc(C(=O)N2CCc3c([nH]c4ccccc34)C2c2cc(F)ccc2F)cs1 (stereo not given) | inconclusive: 56.2 µM [inhibitor, partial curve] |  |
| C[C@@H]1CN([C@H](C)CO)C(=O)Cc2cc(NS(=O)(=O)c3cn(C)cn3)ccc2O[C@H]1CN(C)S(=O)(=O)c1ccc(Cl)cc1 | inactive |  |
| O=[N+]([O-])c1ccc(/C=C/C2=NN(c3ccccc3)C(c3ccco3)C2)cc1 (stereo not given) | inconclusive: 22.4 µM [inhibitor, partial curve] |  |
| O=C(N/N=C/c1ccco1)c1cccc([N+](=O)[O-])c1 | inconclusive: 25.1 µM [inhibitor, single point] |  |
| C[C@]12c3[nH]c4ccccc4c3CCN1C(=O)C(CC(=O)NCc1cccc(C(F)(F)F)c1)C[C@@H]2C(=O)N1CCCCC1 (stereo not given in full) | inconclusive: 56.2 µM [inhibitor, partial curve] |  |
| O=C(O)/C=C/c1ccc(O)c(O)c1 | inconclusive: 56.2 µM [inhibitor, partial curve] |  |
| O=c1[nH]c2c(=O)[nH]cnc2nc1-c1ccccc1 | inconclusive: 2.82 µM [inhibitor, full curve, poor fit] |  |
| Brc1ccc(-n2cccc2/C=N/n2cnnc2)cc1 | inactive |  |

| Structure (SMILES) | Potency | activity change, negative = inhibition |
| --- | --- | --- |
| N#Cc1c(NC(=S)NC(=O)c2ccccc2)sc2c1CCC2 | active: 44.7 µM |  |
| O=C(Nc1cccnc1Cl)C1=NN(c2ccccc2)C(=O)CC1 | inactive |  |
| CCCn1c(SCc2nc(N)nc(N3CCCCC3)n2)nc2c1c(=O)n(C)c(=O)n2C | inactive |  |
| CCSc1ncc(/C=N/Nc2ccccc2)n1C | inconclusive: 8.91 µM [inhibitor, single point] |  |
| CCOC(=O)Cc1csc(NC(=O)CCC(=O)O)n1 | inactive |  |
| CCOC(=O)c1ccc(N2C(=O)c3n[nH]c(-c4ccco4)c3C2c2ccc(OC)cc2OC)cc1 (stereo not given) | inconclusive: 22.4 µM [inhibitor, full curve] |  |
| O=C1c2ccccc2C(=O)c2c1cccc2N1CCN(Cc2ccccc2)CC1 | active: 14.1 µM |  |
| CC1CCC/C(=N\Nc2ccc(Cl)c(C(=O)O)c2)C1 (stereo not given) | active: 79.4 µM |  |
| c1ccc(SCCOCCN2CCOCC2)cc1 | inactive |  |
| COc1ccc2c(c1)Cc1sc(NC(=O)c3ccccc3C)nc1-2 | inconclusive: 89.1 µM [inhibitor, single point] |  |
| O=C(NCc1ccc2c(c1)OCO2)C1CCN(c2nccc(C(F)(F)F)n2)CC1 | inactive |  |
| NS(=O)(=O)c1ccc(CCNC(=O)CSc2ccsc2[N+](=O)[O-])cc1 | inactive |  |
| CN(C)CCN(C(=O)c1ccc2ccccc2c1)c1nc2ccc(Br)cc2s1 | inconclusive: 1.41 µM [inhibitor, full curve, poor fit] |  |
| CSc1oc(-c2ccco2)nc1S(=O)(=O)c1ccc(F)cc1 | inactive |  |
| CC(C(=O)NC(C)(C)C)N(Cc1cccs1)C(=O)CCN1CCc2ccccc21 (stereo not given) |  | inconclusive: -55.4% [inhibitor] |
| Cn1cnnc1SCC(=O)NCc1ccccc1 | inactive |  |
| CSc1cccc(NC(=S)N(CCCN2CCCC2)Cc2cccn2Cc2ccc(Cl)cc2)c1 | active: 20 µM |  |
| COc1cccc(OC)c1C(=O)N1CCN(Cc2ccccc2C(F)(F)F)CC1 | active: 7.94 µM |  |
| Cc1c(C)n(Cc2ccccc2)c2ccc(C(=O)N3CCN(c4ccccc4F)CC3)cc12 | inconclusive: 11.2 µM [inhibitor, full curve] |  |
| CN(c1ccccc1)S(=O)(=O)c1cccc(NC(=O)C2=NN(c3ccccc3)C(=O)CC2)c1 | inactive |  |
| Cc1nc2ccn(Cc3cccnc3)c(=O)c2cc1C(=O)N1CCN(c2ccccc2F)CC1 | inactive |  |
| CCc1ccc([C@@H]2CC=C(C(=O)O)[C@H](c3ccc(Cl)cc3)N2S(=O)(=O)c2ccc(C)cc2)cc1 | inactive |  |
